Results: PubChem BioAssay (NCATS)
Several values for one entry are separate records, joined by “and”; a condition that tells them apart may be missing. Equal entries are not always repeated. Inconclusive results, whose numbers are uncertain, are shown with a selection of clear calls. Where the call is inconclusive, the potency comes from a doubtful curve fit. Activity calls are given as the source filed them. The call rests on the fitted dose curve; in most records, active means well fitted curve in the direction sought with a large enough effect; inconclusive means small, poorly fitted or top-dose-only effect, or another doubt; inactive means no such curve, though single readings can be large; an effect the other way counts as inactive or inconclusive.

Assay: qHTS of pediatric cancer cell lines to identify multiple opportunities for drug repurposing: Primary screen for A673 cells (AID 1347092); further: nearly all actives have a fitted effect of over 45% in size; on activity change, negative = cytotoxic: on the % scale 0 is the no-effect control and ±100 the full control effect
Settings: A673 Ewing sarcoma viability, CellTiter-Glo ATP luminescence, 48 h; activity change, negative = cytotoxic: at 46 µM (top of the series)
Method in brief: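 Titration-based qHTS on A673 cells: MIPE compounds spanned 11 points (0.78 nM to 46 µM final), NPC compounds 8 points (0.59 nM to 46 µM final). Viability after 48 h was measured by ATP luminescence.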
Potency means the concentration at half of the fitted maximal effect; tags describe the fitted curve by direction and shape.

Row | SMILES | Potency | activity change, negative = cytotoxic
1 | Cc1cc([C@@H](C)Nc2ccccc2C(=O)O)c2nc(N3CCOCC3)cc(=O)n2c1 | inconclusive: 0.855 µM [cytotoxic, full curve, poor fit] | 
2 | C[C@H](NC(=O)C(C#N)=Cc1cccc(Br)n1)c1ccccc1 | active: 14.8 µM | 
3 | C[C@@]12C(=O)OC(=O)[C@]1(C)C1CCC2O1 | active: 6.68 µM | 
4 | CC(=O)OCC(=O)[C@@]12N=C(C)O[C@@H]1C[C@H]1[C@@H]3CCC4=CC(=O)C=C[C@]4(C)[C@H]3[C@@H](O)C[C@@]12C |  | inactive: -0.921%
5 | CCC(C)(C)C(=O)O[C@H]1C[C@@H](C)C=C2C=C[C@H](C)[C@H](CC[C@@H]3C[C@@H](O)CC(=O)O3)[C@H]21 | inconclusive: 14.8 µM [cytotoxic, partial curve] | 
6 | Oc1ccc(Cl)cc1Sc1cc(Cl)ccc1O | inconclusive: 26.6 µM [cytotoxic, single point] | 
7 | C[C@@H]1C[C@H]2[C@@H]3C[C@H](F)C4=CC(=O)C(Cl)=C[C@]4(C)[C@@]3(F)[C@@H](O)C[C@]2(C)[C@@]1(O)C(=O)CO |  | inactive: -22.5%
8 | CNCCC(Oc1ccc(C(F)(F)F)cc1)c1ccccc1 (stereo not drawn) | inconclusive: 21.1 µM [cytotoxic, single point] | 
9 | O=C1NC(=O)C(c2cnc3ccccn23)=C1c1cn2c3c(cccc13)CN(C(=O)N1CCOCC1)CC2 | inconclusive: 37.2 µM [cytotoxic, partial curve, poor fit] | 
10 | CC(=O)N1CCN(c2ccc(OCc3nn(C)c(C)c3-c3cccc4c(CCCOc5cccc6ccccc56)c(C(=O)O)n(Cc5cccnc5)c34)cc2)CC1 | active: 0.0743 µM | 
11 | C[C@@H](c1ncncc1F)[C@](O)(Cn1cncn1)c1ccc(F)cc1F | inconclusive: 23.5 µM [cytotoxic, partial curve, poor fit] | 
12 | Nc1ccc(C(=O)Nc2ccccc2N)cc1 | inconclusive: 13.3 µM [cytotoxic, partial curve] | 
13 | CC1(CN2CCC(n3c(=O)[nH]c4ccccc43)CC2)OCc2ccccc2-n2cccc21 (stereo not drawn) | inconclusive: 14.8 µM [cytotoxic, partial curve] and inconclusive: 33.5 µM [cytotoxic, single point] | 
14 | CC1(C)O[C@@H]2C[C@@H]3[C@H]4C[C@@H](F)C5=CC(=O)C=C[C@]5(C)[C@@]4(F)[C@@H](O)C[C@]3(C)[C@]2(C(=O)CO)O1 | inconclusive: 9.35 µM [cytotoxic, full curve] | 

Assay: qHTS of pediatric cancer cell lines to identify multiple opportunities for drug repurposing: Primary screen for SK-N-MC cells (AID 1347093);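 on activity change, negative = cytotoxic: plate controls were DMSO neutral control for no effect and bortezomib for full effect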
Settings: SK-N-MC viability, CellTiter-Glo luminescence, 48 h; activity change, negative = cytotoxic: at 46 µM (top of the series)
Method in brief: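 Metabolically active cells were quantified by ATP-dependent luminescence (CellTiter-Glo, 15 min at room temperature) following 48 h treatment. Cells had been plated at 500-1,000 per well and settled for 5 h beforehand.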

Row | SMILES | Potency | activity change, negative = cytotoxic
15 | C[C@H](NC(=O)C(C#N)=Cc1cccc(Br)n1)c1ccccc1 | active: 11.8 µM | 
16 | CCC(C)(C)C(=O)O[C@H]1C[C@@H](C)C=C2C=C[C@H](C)[C@H](CC[C@@H]3C[C@@H](O)CC(=O)O3)[C@H]21 | inconclusive: 21.1 µM [cytotoxic, partial curve, poor fit] | 
17 | NC(=O)c1ncn([C@@H]2O[C@H](CO)[C@@H](O)[C@@H]2O)n1 | inconclusive: 23.5 µM [cytotoxic, partial curve, poor fit] | 
18 | CC(C)c1cnn2c(NCc3ccccc3)cc(N[C@@H](CO)[C@H](O)CO)nc12 | active: 0.296 µM | 
19 | Oc1ccc(Cl)cc1Sc1cc(Cl)ccc1O | inconclusive: 33.5 µM [cytotoxic, single point] | 
20 | CNCCC(Oc1ccc(C(F)(F)F)cc1)c1ccccc1 (stereo not drawn) | inconclusive: 33.5 µM [cytotoxic, single point] | 
21 | Cc1ccc(C(=O)Nc2cccc(C(F)(F)F)c2)cc1-c1ccc2nc(NCCN3CCOCC3)ncc2c1 | active: 4.69 µM | 
22 | Cc1nnc(NS(=O)(=O)c2ccc(N)cc2)s1 | inconclusive: 16.8 µM [cytotoxic, partial curve, poor fit] | 
23 | CCCCCCNC(=O)n1cc(F)c(=O)[nH]c1=O | inconclusive: 21.1 µM [cytotoxic, partial curve] | 
24 | C[C@@H](c1ncncc1F)[C@](O)(Cn1cncn1)c1ccc(F)cc1F |  | inconclusive: -33.6% [cytotoxic]
25 | CC1(CN2CCC(n3c(=O)[nH]c4ccccc43)CC2)OCc2ccccc2-n2cccc21 (stereo not drawn) | active: 33.2 µM and inconclusive: 33.5 µM [cytotoxic, single point] | 

Assay: qHTS of pediatric cancer cell lines to identify multiple opportunities for drug repurposing: Primary screen for BT-37 cells (AID 1347094);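 on activity change, negative = cytotoxic: plate controls were DMSO for no effect and bortezomib for full effect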
Settings: BT-37 viability, CellTiter-Glo luminescence, 48 h; series mostly up to 57.3 µM; activity change, negative = cytotoxic: at the top concentration
Method in brief: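 Readout: CellTiter-Glo luminescence, 48 h treatment. Controls DMSO (neutral) and bortezomib 2.3 µM final (positive). Potency and efficacy taken from primary-screen concentration-response curves.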

Row | SMILES | activity change, negative = cytotoxic | Potency
26 | N[C@H](Cc1c[nH]c2ccccc12)C(=O)O | inactive: 12.6% | 
27 | C[C@H](NC(=O)C(C#N)=Cc1cccc(Br)n1)c1ccccc1 |  | inconclusive: 43.2 µM [cytotoxic, single point]
28 | C[C@@]12C(=O)OC(=O)[C@]1(C)C1CCC2O1 |  | inconclusive: 0.617 µM [cytotoxic, full curve]
29 | CCC(C)(C)C(=O)O[C@H]1C[C@@H](C)C=C2C=C[C@H](C)[C@H](CC[C@@H]3C[C@@H](O)CC(=O)O3)[C@H]21 |  | inconclusive: 15.5 µM [cytotoxic, partial curve] and inconclusive: 19.3 µM [cytotoxic, partial curve]
30 | NC(=O)c1ncn([C@@H]2O[C@H](CO)[C@@H](O)[C@@H]2O)n1 | inactive: -2.7% | 
31 | Oc1ccc(Cl)cc1Sc1cc(Cl)ccc1O |  | active: 21.9 µM
32 | CC(C)(Sc1cc(C(C)(C)C)c(O)c(C(C)(C)C)c1)Sc1cc(C(C)(C)C)c(O)c(C(C)(C)C)c1 |  | inconclusive: 19.3 µM [cytotoxic, partial curve]
33 | CNCCC(Oc1ccc(C(F)(F)F)cc1)c1ccccc1 (stereo not drawn) |  | inconclusive: 21.9 µM [cytotoxic, single point]
34 | COc1ccc(C2C(=O)c3ccccc3C2=O)cc1 | inactive: 15.1% | 
35 | Nc1nc(N)c2nc(CNc3ccc(C(=O)NC(CCC(=O)O)C(=O)O)cc3)cnc2n1 (stereo not drawn) |  | active: 0.0485 µM
36 | CCCCCCNC(=O)n1cc(F)c(=O)[nH]c1=O |  | inconclusive: 17.4 µM [cytotoxic, partial curve] and inconclusive: 15.3 µM [cytotoxic, partial curve]
37 | Nc1ccc(C(=O)Nc2ccccc2N)cc1 |  | active: 17.4 µM
38 | CC1(CN2CCC(n3c(=O)[nH]c4ccccc43)CC2)OCc2ccccc2-n2cccc21 (stereo not drawn) |  | inconclusive: 34.7 µM [cytotoxic, single point]
